Data taken from PubChem BioAssay AID1030 (National Center for Advancing Translational Sciences (NCATS), 2008).
Hit rate of the full screen: of about 220,000 compounds, about 16,000 (7.3%) were called active. The inconclusive results got no clear call from the source; some entries with a clear call stand among them for comparison. Calls come from the whole dose curve; as a rule, active = well fitted inhibition curve with a large enough effect (not every such curve was filed as active); inconclusive = small, poorly fitted or top-dose-only effect, or another doubt; inactive = no such curve, though single readings can be large or run the other way. No potency is given beside an inconclusive call; the fits are too rough.

Target: Aldehyde dehydrogenase 1A1 (Homo sapiens) (UniProt P00352)
Sequence of UniProt P00352 (P00352 whole entry, looked up): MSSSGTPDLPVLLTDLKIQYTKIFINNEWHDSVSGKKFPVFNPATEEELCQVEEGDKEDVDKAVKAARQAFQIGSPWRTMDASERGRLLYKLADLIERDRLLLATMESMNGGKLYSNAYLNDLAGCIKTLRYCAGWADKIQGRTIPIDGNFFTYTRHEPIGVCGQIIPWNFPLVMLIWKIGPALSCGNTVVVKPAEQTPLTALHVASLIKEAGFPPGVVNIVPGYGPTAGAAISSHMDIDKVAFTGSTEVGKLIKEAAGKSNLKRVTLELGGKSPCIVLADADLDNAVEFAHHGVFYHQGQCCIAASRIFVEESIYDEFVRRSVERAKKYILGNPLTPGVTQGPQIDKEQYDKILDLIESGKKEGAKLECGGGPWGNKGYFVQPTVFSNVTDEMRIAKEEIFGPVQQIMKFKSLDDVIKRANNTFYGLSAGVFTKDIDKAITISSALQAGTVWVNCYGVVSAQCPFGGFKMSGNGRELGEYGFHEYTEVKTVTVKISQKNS
Assay: qHTS Assay for Inhibitors of Aldehyde Dehydrogenase 1 (ALDH1A1);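 for activity, negative = inhibition: plate controls were no enzyme wells and a reference inhibitor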
Conditions: Purified ALDH1A1, NADH fluorescence, propionaldehyde substrate; series mostly up to 75.3 µM
Potency is the fitted concentration of half-maximal effect; tags give direction and shape of the fitted curve.

Q: Which Potency does the source give for CCOC(=O)/C(C#N)=C\c1ccc(N2CCN(C/C=C/c3ccccc3)CC2)cc1 here?
A: inconclusive [inhibitor, single point]

Q: Which Potency does the source give for O=c1/c(=C\c2cc([N+](=O)[O-])cc([N+](=O)[O-])c2O)sc2nc3ccccc3n12 here?
A: active: 7.94 µM

Q: With C=CCC1C=CCC(CC=C)N1C(=O)c1ccccc1[N+](=O)[O-] (stereo not drawn) as the compound, how does the Potency read?
A: inactive

Q: How did the Potency turn out when Cc1ccc(CNC(=O)CN(Cc2cccs2)C(=O)C2(C)CC(=O)N=C3C=CC=CN32)cc1 (stereo not drawn) was run?
A: inconclusive [inhibitor, partial curve]

Q: How did the Potency turn out when CC1CC(C)CN(C(=S)Nc2ccc3nc4n(c(=O)c3c2)CCCCC4)C1 (stereo not drawn) was run?
A: inactive

Q: COc1ccc(CCNC(=O)C2CCN(C(=O)c3cccs3)CC2)cc1 was tested. Which Potency did it give?
A: active: 0.398 µM

Q: How did the Potency turn out when NC1=NCCN1CC(=O)O was run?
A: inactive

Q: For CC(C)CCn1cnc2c(oc3nc4c(cc32)CCCC4)c1=O, which Potency is on record?
A: active: 3.16 µM

Q: With CC1CCc2nc(N)c(C#N)c(-c3ccncc3)c2C1 (stereo not drawn) as the compound, how does the Potency read?
A: inconclusive [inhibitor, single point]

Q: O=C(CSc1nnc(-c2ccco2)n1Cc1ccco1)N1CCOCC1 was tested. Which Potency did it give?
A: inactive

Q: How did the Potency turn out when Cc1nnc(C)n1N1C(=O)c2cccc3cccc(c23)C1=O was run?
A: inconclusive [inhibitor, partial curve]

Q: Which Potency does the source give for CC1CC/C(=N/Nc2ccccc2)C(=O)N1 (stereo not drawn) here?
A: inconclusive [inhibitor, single point]

Q: With C=C(C)CN1C(=O)c2ccccc2C1=O as the compound, how does the Potency read?
A: inconclusive [inhibitor, partial curve]

Q: COc1cc(Nc2nc(-c3ccccc3)c3cc(C)ccc3n2)cc(OC)c1OC was tested. Which Potency did it give?
A: inactive

Q: How did the Potency turn out when COc1cccc(-c2nccc(NCc3cccnc3)n2)c1 was run?
A: inconclusive [inhibitor, single point]

Q: Which Potency does the source give for Cc1cc(C(F)(F)F)nn1Cc1n[nH]c(=S)n1-c1ccc(Cl)cc1 here?
A: inactive

Q: For O=C(O)CCC(=O)N1CCN(c2ccccn2)CC1, which Potency is on record?
A: inactive

Q: How did the Potency turn out when COc1ccc(N2CC(C(=O)NCc3cccnc3)CC2=O)cc1 (stereo not drawn) was run?
A: inactive

Q: With CCC(CC)C(=O)NCCN1CCN(C(=O)C(CC)CC)CC1 as the compound, how does the Potency read?
A: inactive

Q: With C=CCOC(=O)C(C(C)=O)C(NC(=O)OC)c1ccc(F)cc1 (stereo not drawn) as the compound, how does the activity, negative = inhibition read?
A: inactive: 20.6% [at 13.5 µM]

Q: With Cc1ccc(Sc2c(C=O)c3ccccc3n2C)cc1 as the compound, how does the Potency read?
A: inactive

Q: With CCOCCCNC(=O)/C=C1\Sc2ccccc2N(Cc2ccccc2F)C1=O as the compound, how does the Potency read?
A: inconclusive [inhibitor, partial curve]

Q: How did the Potency turn out when Cc1[nH]c(C)c2c(=O)n(Cc3ccc(Cl)cc3)ncc12 was run?
A: inactive

Q: With O=C(NNc1nc2ccccc2nc1C(F)(F)F)c1ccccc1 as the compound, how does the Potency read?
A: inconclusive [inhibitor, single point]

Q: Which Potency does the source give for COc1ccccc1C(=O)NNC(=S)Nc1ccccc1 here?
A: inactive

Q: How did the Potency turn out when CN1CCN(c2ccc(NS(=O)(=O)c3ccc(Cl)cc3)cn2)CC1 was run?
A: inactive

Q: With Cc1cc(C)c(C)c(S(=O)(=O)Nc2ccccc2C(=O)NCCCN2CCOCC2)c1C as the compound, how does the Potency read?
A: inactive

Q: O=C(CSc1ncc(-c2ccc(F)cc2)[nH]1)Nc1cccc(O)c1 was tested. Which Potency did it give?
A: inconclusive [inhibitor, single point]

Q: With Cc1nc(-c2ccc(-n3nncc3-c3ccco3)cc2)cs1 as the compound, how does the Potency read?
A: active: 25.1 µM

Q: How did the Potency turn out when Cc1cccc(-c2c3c(=O)n(C)c(=O)n(C)c3cn2C(C)C)c1 was run?
A: inconclusive [inhibitor, single point]

Q: How did the Potency turn out when Cc1cccc(/C=c2\s/c(=C\C(=O)C(C)(C)C)[nH]c2=O)c1 was run?
A: inactive

Q: For CCC(=O)Nc1ccc(C(=O)N/N=C/c2cccnc2)cc1, which Potency is on record?
A: inconclusive [inhibitor, single point]

Q: For CN(CCNC(=O)c1cn(C)c2ccc(S(=O)(=O)N(C)C)cc2c1=O)CCc1ccccc1, which Potency is on record?
A: inactive

Q: With CC(=O)N1c2c(cc(Br)cc2S(=O)(=O)N2CCN(c3ccccn3)CC2)CC1C (stereo not drawn) as the compound, how does the Potency read?
A: inconclusive [inhibitor, single point]

Q: With CC(NC(=O)c1cnc2n(c1=O)CCS2)c1ccccc1 (stereo not drawn) as the compound, how does the Potency read?
A: inconclusive [inhibitor, partial curve]

Q: Which Potency does the source give for CCN1CCCc2cc(CN(CCN3CCOCC3)C(=S)Nc3cccc(OC)c3)ccc21 here?
A: active: 15.8 µM

Q: Which Potency does the source give for COc1cc2c(cc1OC)-c1nnc(C)n1C1(CCCC1)C2 here?
A: inconclusive [inhibitor, single point]

Q: Which Potency does the source give for CCN(C(=O)c1ccnc(C(C)(C)C)c1)c1ccccc1 here?
A: inconclusive [inhibitor, single point]

Q: O=C(NCc1ccc2c(c1)OCO2)c1ccc(CN2CCc3ccccc3C2)cc1 was tested. Which Potency did it give?
A: inconclusive [inhibitor, single point]

Q: How did the Potency turn out when Cn1c(=O)c(=O)n(C)c2cc(S(=O)(=O)N3CCN(c4cccc(C(F)(F)F)c4)CC3)ccc21 was run?
A: inconclusive [inhibitor, single point]

Q: CCN1CC(CN(C)Cc2nc(-c3ccc(Cl)cc3)no2)CC1=O (stereo not drawn) was tested. Which Potency did it give?
A: inactive

Q: With CN1CCN(Cc2nc3c(c(=O)n(C)c(=O)n3C)n2Cc2cccc3ccccc23)CC1 as the compound, how does the Potency read?
A: inconclusive [inhibitor, partial curve]

Q: CCCCOC(=O)C(C)c1c(C)[nH]c(=S)[nH]c1=O (stereo not drawn) was tested. Which Potency did it give?
A: inconclusive [inhibitor, single point]

Q: How did the Potency turn out when O=c1c(C(c2ccc(O)cc2)c2c(O)nc3n(c2=O)CCCS3)c(O)nc2n1CCCS2 was run?
A: inconclusive [inhibitor, partial curve]

Q: For Cc1c(C(=O)Nc2c(F)cccc2F)sc2ncnc(N3CCN(c4ccccc4)CC3)c12, which Potency is on record?
A: inconclusive [inhibitor, single point]

Q: For Cc1occc1C(=O)N1CCCC(CCC(=O)NCc2ccc(F)c(F)c2)C1 (stereo not drawn), which Potency is on record?
A: inconclusive [inhibitor, single point]

Q: For Cc1cc(C)n2cc(CSCc3ccccc3)nc2n1, which Potency is on record?
A: inconclusive [inhibitor, partial curve]

Q: With CN1C[C@@H]2C(c3ccc(Cl)nc3)C3(c4ccccc4)CC2(C3)[C@H]1c1ccccc1 (stereo partly drawn) as the compound, how does the Potency read?
A: inactive

Q: With COc1cccc(N(C(=O)CCl)C(C(=O)NCCc2ccccc2)c2cccs2)c1 (stereo not drawn) as the compound, how does the Potency read?
A: inactive

Q: How did the Potency turn out when Cc1ccc(O)c(NC(=O)/C=C/C(=O)O)c1 was run?
A: inactive

Q: For CCOC(=O)C1=C(c2ccccc2)N=c2s/c(=C\c3ccco3)c(=O)n2C1c1cccs1 (stereo not drawn), which Potency is on record?
A: inconclusive [inhibitor, partial curve]

Q: With COc1cc(/C=N/NC(=O)CC2(C)OCCCO2)ccc1OCc1ccccc1 as the compound, how does the Potency read?
A: active: 11.2 µM

Q: COc1ccc(CNc2ccnc(-c3ccc(N(C)C)cc3)n2)c(OC)c1 was tested. Which Potency did it give?
A: inconclusive [inhibitor, partial curve]

Q: With CCO[C@H]1OC(C(=O)N2CCN(C)CC2)=C[C@@H](c2ccc(Br)cc2)[C@@H]1CCCO as the compound, how does the Potency read?
A: inactive

Q: Which Potency does the source give for CCOC(=O)c1cnn(-c2ccccc2)c1NC(=O)c1ccccc1C here?
A: inconclusive [inhibitor, partial curve, poor fit]

Q: Which Potency does the source give for CCOC(=O)c1c(NC(=O)CN2CCCCC2)sc(CN(C)C)c1-c1ccccc1 here?
A: inactive

Q: With CCOC(=O)c1ccc(Nc2cc(C)nc(N3CCOCC3)n2)cc1 as the compound, how does the Potency read?
A: inconclusive [inhibitor, single point]

Q: How did the Potency turn out when O=C(Nc1ccc2c(c1)OCCO2)C(=S)NCc1ccccc1 was run?
A: inconclusive [inhibitor, partial curve]

Q: For CC(C)(C)c1ccc(OCCC(=O)Nc2cccc(S(=O)(=O)N3CCCCC3)c2)cc1, which Potency is on record?
A: inconclusive [inhibitor, single point]

Q: Which Potency does the source give for CCCCOC(=O)c1ccc(NC(=O)COC(=O)CSc2nc(C)cc(C)n2)cc1 here?
A: inconclusive [inhibitor, single point]

Q: For Cn1c(=S)[nH]c(=O)c2ncc(=O)[nH]c21, which Potency is on record?
A: inactive

Q: With Cc1cc(C(=O)COC(=O)Cc2n[nH]c(=O)c3ccccc23)c(C)n1-c1cccc(C(F)(F)F)c1 as the compound, how does the Potency read?
A: active: 7.94 µM

Q: Which Potency does the source give for Cc1cc(C)cc(-n2nnc(C(=O)NCc3ccco3)c2N)c1 here?
A: inconclusive [inhibitor, single point]

Q: With Cc1ccc(NC(=O)/C(=C\c2cccnc2)NC(=O)c2ccco2)cc1 as the compound, how does the Potency read?
A: inconclusive [inhibitor, single point]

Q: Which Potency does the source give for CN1C(=O)N(C)C2(c3ccccc3)Nn3c(s/c(=C/c4ccco4)c3=O)=NC12c1ccccc1 (stereo not drawn) here?
A: inconclusive [inhibitor, partial curve]

Q: With Cc1ccc2nc(SCC(=O)Nc3ccc(F)c([N+](=O)[O-])c3)[nH]c2c1 as the compound, how does the Potency read?
A: inconclusive [inhibitor, partial curve]

Q: How did the Potency turn out when CCN(CC)c1cccc(OCC(=O)N(C)CCC#N)c1 was run?
A: inconclusive [inhibitor, partial curve]

Q: CCOc1ccc(C2CC(c3ccccc3C)n3nc(N)nc3N2)cc1 (stereo not drawn) was tested. Which Potency did it give?
A: inconclusive [inhibitor, single point]

Q: Which Potency does the source give for CC(=O)N1N=C(c2ccccc2)OC1c1ccc([N+](=O)[O-])s1 (stereo not drawn) here?
A: inconclusive [inhibitor, single point]

Q: Which Potency does the source give for Cc1c(-c2cccc(Cl)c2)nc2ccccc2c1C(=O)OCC(=O)N(C)C1CCS(=O)(=O)C1 (stereo not drawn) here?
A: inconclusive [inhibitor, single point]

Q: For O=C1C2C(C(=O)N1Cc1ccco1)C1C=CC2C12CC2 (stereo not drawn), which Potency is on record?
A: active: 12.6 µM

Q: With CCN(CC)c1ccc(SS(=O)(=O)O)cc1 as the compound, how does the Potency read?
A: active: 12.6 µM

Q: O=C1S/C(=C\c2ccc(O)c([N+](=O)[O-])c2)C(=O)N1Cc1cccc([N+](=O)[O-])c1 was tested. Which Potency did it give?
A: inconclusive [inhibitor, partial curve]
